Experimental data reported in PMC4336329 (PLoS ONE, 2015).
The campaign covered roughly 310,000 compounds. About 14,000 (4.5%) showed an effect of 50% or more. Effects have a minus sign here. The list shows a part of the results.

Molecular target: human ether-à-go-go-related gene (hERG) potassium channel (human, UniProt Q12809)
Test: primary screen, population patch clamp on CHO cells stably expressing hERG
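Also: peak tail current of the secondary pulse compared with the same well before compound.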

human ether-à-go-go-related gene (hERG) potassium channel, sequence (Q12809 whole entry, looked up): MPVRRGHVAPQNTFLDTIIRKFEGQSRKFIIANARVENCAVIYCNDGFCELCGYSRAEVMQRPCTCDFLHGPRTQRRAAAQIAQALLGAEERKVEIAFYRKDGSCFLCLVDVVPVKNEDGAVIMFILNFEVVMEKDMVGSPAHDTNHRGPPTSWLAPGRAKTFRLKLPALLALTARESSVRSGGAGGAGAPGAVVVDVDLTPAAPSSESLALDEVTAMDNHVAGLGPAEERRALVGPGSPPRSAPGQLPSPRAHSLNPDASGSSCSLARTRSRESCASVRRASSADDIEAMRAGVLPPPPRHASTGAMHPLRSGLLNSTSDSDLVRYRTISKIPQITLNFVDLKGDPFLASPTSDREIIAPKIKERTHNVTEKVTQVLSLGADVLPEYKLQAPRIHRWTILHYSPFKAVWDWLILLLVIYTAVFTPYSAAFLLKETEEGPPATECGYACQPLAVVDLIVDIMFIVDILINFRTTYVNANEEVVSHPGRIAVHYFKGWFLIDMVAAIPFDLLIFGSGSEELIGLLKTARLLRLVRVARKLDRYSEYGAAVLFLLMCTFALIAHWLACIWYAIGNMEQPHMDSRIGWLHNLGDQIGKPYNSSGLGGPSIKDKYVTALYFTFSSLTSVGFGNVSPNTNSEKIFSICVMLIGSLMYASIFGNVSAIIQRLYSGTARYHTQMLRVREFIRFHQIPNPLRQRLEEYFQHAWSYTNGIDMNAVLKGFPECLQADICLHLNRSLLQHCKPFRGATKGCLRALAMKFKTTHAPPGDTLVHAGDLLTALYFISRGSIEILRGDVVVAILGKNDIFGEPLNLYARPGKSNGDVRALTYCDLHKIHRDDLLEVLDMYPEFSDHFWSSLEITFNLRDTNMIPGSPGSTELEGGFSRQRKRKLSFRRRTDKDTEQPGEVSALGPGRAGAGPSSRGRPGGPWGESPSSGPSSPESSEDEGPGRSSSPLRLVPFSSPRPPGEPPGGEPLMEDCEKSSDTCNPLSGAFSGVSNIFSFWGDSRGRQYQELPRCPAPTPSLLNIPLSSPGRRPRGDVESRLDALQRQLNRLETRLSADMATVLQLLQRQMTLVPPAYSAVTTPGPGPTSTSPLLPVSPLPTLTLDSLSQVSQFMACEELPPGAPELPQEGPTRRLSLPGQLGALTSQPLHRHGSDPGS

Row | Structure (SMILES) | hERG current change (%, negative = inhibition) at 10uM
1 | COc1ccc(Cc2nc(-c3ccc(NC(=O)c4cccnc4)cc3)no2)cc1 | 21.2%
2 | O=C(c1ccc([N+](=O)[O-])cc1)N1CCc2ccccc21 | -8.31%
3 | CCCOC(=O)CCCC[C@H]1SC[C@@H](NC(=O)OC)[C@H]1NC(=O)OC | -3.47%
4 | CC(C)C[C@H]1CN=C(N(C)C)N1CC1CCCC1 | 0.21%
5 | CC(Sc1n[nH]c(N)n1)C(=O)Nc1ccccc1-c1ccccc1 (centres unmarked) | 14.8%
6 | CC1(C)CC(=O)C=C(c2ccc3ccccc3c2)C1 | -3.37%
7 | COc1ccccc1OCCCCN1CCCCC1 | -1.89%
8 | Cc1csc(NC(=O)c2ccccc2[N+](=O)[O-])n1 | 2.69%
9 | CC12CCC(=O)N1C(C(=O)Nc1cc(Cl)ccc1N1CCOCC1)CS2 (centres unmarked) | -41.5%
10 | CCc1noc(C)c1C(=O)NNC(=O)COc1ccc(C)c(C)c1 | 5.47%
11 | CN(Cc1ccc(F)cc1)C(=O)c1cc(COc2ccc(-n3cncn3)cc2)on1 | -78.3%
12 | COc1ccc(COC(=O)NNC(=O)c2ccccc2Cl)cc1 | -3.85%
13 | Cc1ccc(C)c(N2CCN(CCCNC(=O)Cn3cc4c(n3)CCC(C)C4)CC2)c1 (centres unmarked) | -63.4%
14 | COc1cccc(CNCc2ccc(SC)cc2)c1OC | -27.9%
15 | O=C(O)CCC(=O)c1ccc2c(c1)OCCCO2 | 12.4%
16 | Cc1ccc(N2CN=C(c3ccccc3)NC2=S)cc1 | -20.4%
17 | Cn1cnnc1SC(C(=O)Nc1cc(Cl)cc(Cl)c1)c1ccccc1 (centres unmarked) | 20.9%
18 | CCOC(=O)c1ccc(NC(=S)NC2CC(C)(C)NC(C)(C)C2)cc1 | -3.4%
19 | CCOc1c(C)cc(S(=O)(=O)NCc2ccccn2)c(C)c1C | 19.7%
20 | O=C(N/N=C/c1ccco1)c1[nH]ncc1Br | 24.3%
21 | O=C(NCCNc1ccc([N+](=O)[O-])cc1)c1ccccc1F | -42.8%
22 | COCCCNC(=O)C(=O)N/N=C/c1ccc(OCC(=O)Nc2cccc(Cl)c2C)c(OC)c1 | -0.6%

Row | Structure (SMILES) | hERG current change (%, negative = inhibition) at 10uM
23 | CCc1ccccc1N1CC(C(=O)Nc2cc(S(=O)(=O)N3CCCC3)ccc2Cl)CC1=O (centres unmarked) | -22.2%
24 | COc1cc(/C=C/C2=CC(C)(C)NC(=S)N2)cc(OC)c1OC | 14.9%
25 | O=C(Nc1ccon1)c1ccc(S(=O)(=O)N2CCOCC2)cc1 | 31.8%
26 | COc1ccccc1N1Cc2ccc(OC)c(OC)c2C1=O | 12.1%
27 | Nc1nc(-c2ccc(C(=O)O)cc2)cs1 | 14.3%
28 | CC(C)[C@H]1C(=O)Nc2ccccc2N1C(=O)N[C@@H](Cc1ccccc1)C(=O)N[C@H](Cc1ccccc1)C(=O)O | 1.06%
29 | Cc1ccn(CCNC(=O)C2CCC(=O)N(CCc3ccc(Cl)cc3)C2)n1 (centres unmarked) | -55.3%
30 | CCN(CC)S(=O)(=O)c1ccc(OC)c(NC(=O)c2cccc(C)c2[N+](=O)[O-])c1 | -14.5%
31 | O=[N+]([O-])c1ccc2nc(CN3CCCCC3)[nH]c2c1 | -15%
32 | COc1ccc(-c2cc(C(=O)Nc3cc(OC)cc(C(=O)Nc4cccc(C(F)(F)F)c4)c3)[nH]n2)cc1 | -3.45%
33 | COCc1ccc(CN2CCCC(CO)(Cc3cccc(OC)c3)C2)o1 (centres unmarked) | -26.2%
34 | COc1ccc(C(=O)Nc2ccc(C(=O)c3ccccc3)cc2)cc1 | 22.9%
35 | COc1cccc(CNC(=O)CN2C(=O)COc3ccc(S(=O)(=O)N4CCCCCC4)cc32)c1 | 24.8%
36 | O=C(NCCN1CCOCC1)Nc1ccc(Cl)cc1 | 1.69%
37 | CCOC(=O)CNC(=O)C1c2cc(OC)c(OC)cc2C(=O)N(C)C1c1ccccc1F (centres unmarked) | -2.8%
38 | CCOC(=O)c1cc(-c2cc3ccccc3o2)n[nH]1 | 12.3%
39 | COc1ccc2nc(NC(=O)C(NS(=O)(=O)c3cccc4nsnc34)C(C)C)sc2c1 (centres unmarked) | 10.4%
40 | CCOC(=O)C1CCC/C1=N\NC(=O)CN(c1cc(OC)ccc1OC)S(=O)(=O)c1ccccc1 (centres unmarked) | -22.9%
41 | COc1ccc(CCNC(=O)CC2(CC3=NS(=O)(=O)c4ccccc4N3)CCCC2)cc1OC | -14.4%
42 | Cc1cccc(NC(=O)NC2CCCCCCC2)c1C | 14.1%
43 | CC(/C=N\NC(=O)Cn1c(C)nc2ccccc21)=C\c1ccccc1 | 17.6%
44 | Clc1ccc(COn2c(-c3ccc(Cl)cc3Cl)nc3ncccc32)cc1 | -18.8%

Row | Structure (SMILES) | hERG current change (%, negative = inhibition) at 10uM
45 | COCCN(C(=O)c1ccco1)c1nnc(-c2ccc(OC)cc2)s1 | -14.8%
46 | CCCCOc1ccc(C(=O)NN2C(=O)NC3(CCCCC3)C2=O)cc1OC | 8.93%
47 | CCC(=O)N1CCc2cc(Br)cc(S(=O)(=O)N(C)c3ccc(OC)cc3OC)c21 | 3.29%
48 | Cc1cc2cc(C(c3nnnn3C3CCCC3)N(Cc3cccnc3)Cc3ccco3)c(=O)[nH]c2cc1C (centres unmarked) | -24.3%
49 | COc1ccccc1NC(=O)CCNS(=O)(=O)c1ccc2[nH]c(=O)oc2c1 | 7.64%
50 | COc1cccc(CCc2nnc(CCC(=O)N(C)C3CC(C)(C)NC(C)(C)C3)o2)c1 | 13.4%
51 | Cn1c(CN2CCCC2)nc2cc(NC(=O)c3ccc(Cl)cc3)ccc21 | -82%
52 | CN(C(=O)Cc1c(C(=O)O)n(C)c2ccccc12)c1ccc(F)cc1 | 19.8%
53 | CN(C)c1ccc(/C=N/NC(=O)CCc2nc3ccccc3[nH]2)cc1 | 10.8%
54 | C/C(=C\c1ccccc1)C(=O)Nc1ccc(Cl)cn1 | -9.54%
55 | CN(C)c1ccc(C(=O)Nc2nc3c(s2)CCCC3)cc1 | -3.02%
56 | O=C(c1cc[n+]([O-])cc1)N1CCc2c([nH]c3ccccc23)C1c1ccccc1Cl (centres unmarked) | -13.8%
57 | CC(NC(=O)CCNS(=O)(=O)c1ccc2c(c1)c(=O)n(C)c(=O)n2C)c1ccccc1 (centres unmarked) | -0.52%
58 | CC1CCN(S(=O)(=O)c2ccc(NC(=O)CN3CCN(C)CC3)cc2)CC1 | -16%
59 | O=C(O)C1CCN(S(=O)(=O)c2cccnc2)CC1 | 10.5%
60 | O=C(NC1CCCC1)C1CCN(c2nccs2)CC1 | 6.3%
61 | CCOCCn1c(SCc2ccc(F)cc2)nc2c1c(=O)[nH]c(=O)n2C | -19.5%
62 | COc1ccc(Nc2oc(-c3ccco3)nc2S(=O)(=O)c2ccc(F)cc2)cc1 | -9.96%
63 | O=C(Nc1cccc(O)c1)c1ccc([N+](=O)[O-])cc1Cl | -10.2%
64 | COc1cc(Cl)c(C)cc1NC(=O)Cn1c(NCCO)nc2ccccc21 | -6.08%
65 | COc1cccc(/C=N/N2C(=O)CSC2=S)c1O | 15.4%
66 | COc1cc(/C=C/[N+](=O)[O-])ccc1OC(=O)/C=C/c1ccc(F)cc1 | 20.8%

Row | Structure (SMILES) | hERG current change (%, negative = inhibition) at 10uM
67 | Cc1ccc(-c2nn(-c3cc(N4CCNCC4)ccc3[N+](=O)[O-])c(=O)c3ccccc23)cc1 | -7.46%
68 | CC(OC(=O)c1ccccc1NS(=O)(=O)c1cccc(N)c1)C(=O)N(C)Cc1ccccc1 (centres unmarked) | -7.88%
69 | COc1ccc(-c2[nH]ncc2CN2CCN(c3ccccn3)CC2)c(OC)c1 | -31.5%
70 | COc1ccc(CN(C)CC(=O)NC(C)c2ccccc2)c(OC)c1 (centres unmarked) | -13.8%
71 | COc1ccccc1-c1cc(C(F)(F)F)nc(N2CCCCC2)n1 | -1.99%
72 | Cn1ncc2c(Nc3cccc([N+](=O)[O-])c3)ncnc21 | 7.09%
73 | Cc1ccc(C(=O)Nc2cccc(C(F)(F)F)c2)cc1Nc1ccccn1 | -67.4%
74 | CCN(CC)c1ccc(NC(=O)COC(=O)/C=C/c2nc3ccccc3s2)cc1 | 16.3%
75 | CC(=O)NS(=O)(=O)c1ccc(N=c2ssc3c2-c2cc(C)ccc2NC3(C)C)cc1 | -3.4%
76 | CCOC(=O)c1csc(NC(=O)CN2CCCCC2)n1 | 24.7%
77 | CC(=O)O.CC1(C)CC(=O)C2=C(C1)NC1=C(C(=O)c3ccccc31)C2c1cc([N+](=O)[O-])ccc1O (centres unmarked) | -37.1%
78 | CN(C)CCCOc1cccc(Oc2ccccc2)c1.O=C(O)C(=O)O | -34.5%
79 | CCCn1c(SCC(=O)c2cc(OC)ccc2OC)nnc1C(C)C | 4.09%
80 | CC12CC(c3ccccc3O1)N(C(=O)c1ccc(Br)o1)C(=O)N2c1ccccc1 (centres unmarked) | 24.5%
81 | Cc1cc(NC(=O)COC(=O)c2ccccc2[N+](=O)[O-])no1 | 5.86%
82 | COc1ccc(NC(=O)CSc2nc(N)c(C#N)cc2C#N)cc1 | -14.2%
83 | Cn1cc(/C=C(\C#N)C(=O)Nc2ccccc2O)c2ccccc21 | 16.8%
84 | COc1cccc(NC(=O)CN(c2cccc(F)c2)S(C)(=O)=O)c1 | 1.62%
85 | Cc1ccccc1-n1c(O)c(/C=N/c2nccs2)c(=O)[nH]c1=O [22412411] | 4.23%
86 | [O-]/[N+](=C\c1ccco1)c1ccc(Cl)cc1 | 24.1%
